Measurements published in PubChem BioAssay AID485344 (National Center for Advancing Translational Sciences (NCATS), 2010).
Where “and” joins values, the source holds several entries; their conditions need not be identical. Identical values can stand only once. Among all 340,000 compounds or so, about 6,900 (2%) were called active. Rule as the data show it: active = inhibition above about 30%; inactive = below that, where a call was filed. Only a part is listed here, and it is no random draw. Where no call is shown, the source filed none.

target: D(2) dopamine receptor (Homo sapiens) (UniProt P14416); assay: HTS Assay for Allosteric Antagonists of the Human D2 Dopamine Receptor: Primary Screen for Antagonists; details: HEK293 TREx D2 cells, calcium flux, dopamine EC80; at 10 µM; stronger effect = higher value; also: 0% is about no effect
UniProt P14416, sequence (P14416 whole entry, looked up): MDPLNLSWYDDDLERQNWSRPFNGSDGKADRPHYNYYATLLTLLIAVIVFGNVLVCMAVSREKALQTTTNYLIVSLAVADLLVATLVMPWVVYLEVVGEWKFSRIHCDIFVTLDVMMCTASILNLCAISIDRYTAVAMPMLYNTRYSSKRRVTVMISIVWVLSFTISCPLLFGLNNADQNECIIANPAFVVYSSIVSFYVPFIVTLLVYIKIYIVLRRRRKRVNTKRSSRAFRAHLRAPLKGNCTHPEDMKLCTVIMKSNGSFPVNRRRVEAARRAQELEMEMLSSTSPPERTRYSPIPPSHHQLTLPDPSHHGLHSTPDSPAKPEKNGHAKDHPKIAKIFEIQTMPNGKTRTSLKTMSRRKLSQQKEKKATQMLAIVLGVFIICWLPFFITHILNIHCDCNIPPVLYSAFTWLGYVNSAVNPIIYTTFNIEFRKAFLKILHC
Outline: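 Inhibition of EC80 dopamine-driven calcium flux, recorded kinetically, defines activity here; cells are a tetracycline-induced HEK293 T-REx line expressing force-coupled D2.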

Row | SMILES | inhibition
1 | Cc1ccc(S(=O)(=O)c2nnn3c2nc(NC2CCCCCC2)c2sccc23)cc1C | 10%
2 | CC(C)c1nn2c(=O)cc(COC(=O)C3CCCCC3)nc2s1 | -5.29%
3 | CC(CCN1CCN(c2ccccc2)CC1)c1ccccc1 (configuration not stated) | active: 72.6%
4 | CCCN1CCN(C(=O)Nc2cccc(C(F)(F)F)c2)CC1 | active: 51.6%
5 | Cc1ccc(CN(Cc2ccco2)C(=O)c2ccccc2Br)o1 | -12.4%
6 | COc1ccc(OCc2cccc(C(=O)O)c2)cc1 | active: 34.9%
7 | N#C/C(=C/c1ccc(N2CCCCC2)o1)C(=O)Nc1ccc2ccccc2c1 | active: 47%
8 | CCCn1nnnc1NCc1ccc(C(C)C)cc1 | active: 33.9%
9 | Cc1cc(C(=O)Nc2c(C)cccc2C)n(-c2ccccc2)n1 | -4.06%
10 | COCCCNC(=O)c1ccc(Cn2c(SCc3ccc(F)cc3)nc3cccnc32)cc1 | -12.1%
11 | O=C(OCc1cc(=O)n2nc(-c3cccs3)sc2n1)c1cccc(F)c1 | 11.3%
12 | CCOC(=O)c1sc2ncn(CC(=O)Nc3cc(Cl)ccc3C)c(=O)c2c1C | -6.11%
13 | CCOC(=O)c1cc2c(=O)n3ccccc3nc2n(CC2CCCO2)c1=NC(=O)c1ccccc1Br (configuration not stated) | -1.32%
14 | Cc1cccc(NC(=O)CSc2ccc(-c3sc(-c4ccccc4)nc3C)nn2)c1C | -11.8%
15 | CC(=O)c1ccc(N2CCN(C(=O)c3cc(S(=O)(=O)N4CCCCCC4)cn3C)CC2)cc1 | 20.3%
16 | CC(=O)Nc1cccc(NC(=O)CSc2nccn2Cc2ccc3c(c2)OCO3)c1 | 2.42%
17 | O=C(NCCc1csc(-c2cccc(F)c2)n1)C(=O)Nc1cc(F)ccc1F | 13.4%
18 | COc1cccc(CNC(=O)C2CCN(S(=O)(=O)c3c(C)noc3/C=C/c3cccs3)CC2)c1 | -0.621%
19 | O=C(NCc1ccccc1)c1onc(CSc2ccccc2)c1C(=O)NCC1CC1 | active: 38.8%
20 | Cc1ccc(C)c(NC(=O)Cc2coc3cc(C)cc(C)c23)c1 | -28.5%
21 | CCc1ccccc1NC(=O)Cn1nnc2sc3c(c2c1=O)CCC(C(C)(C)C)C3 (configuration not stated) | -12%
22 | O=C(c1cc2ccc3cccnc3c2[nH]1)N1CCCCC1 | 5.89%
23 | O=C(c1noc2c1CCCCC2)N1CCN(c2cccc(Cl)c2)CC1 | 6.67%
24 | Cc1ccc(NC(=O)N2CC3CCCN3c3ccccc32)cc1Cl (configuration not stated) | 6.05%
25 | CCN1CCN(c2nnc(-n3cccc3C(=O)NCc3ccccc3OC)s2)CC1 | 13.6%

Row | SMILES | inhibition
26 | O=C(Cn1ncc2c3ccccc3n(Cc3ccccc3F)c2c1=O)N1CCCCCC1 | 1.92%
27 | COc1ccccc1-n1c(SCC(=O)N2CCOCC2)nc2cccnc21 | active: 59.7%
28 | CC(CCc1ccc(O)cc1)N1CCC(Oc2ccc(C(=O)N3CCCC3)cc2)CC1 (configuration not stated) | active: 39.1%
29 | Cc1ccc(C(=O)Nc2nnc(S(=O)(=O)N(C)Cc3ccc(Cl)cc3)s2)cc1 | 1.21%
30 | COc1cc(Nc2ncc3c(n2)CCN(Cc2ccc(OC(C)C)c(OC)c2)C3)cc(OC)c1 | 16.7%
31 | COc1ccc(NC(=O)c2csnn2)cc1Cl | 1.35%
32 | CCc1nn2c(=O)cc(COC(=O)c3ccc(NC(=O)COc4ccccc4C)cc3)nc2s1 | 2.1%
33 | COc1ccccc1NC(=O)CSc1oc(-c2ccco2)nc1S(=O)(=O)c1ccc(C)cc1 | 15.1%
34 | CCOc1ccc(NC(=O)c2oc3ccccc3c2NC(=O)C(C)(C)C)cc1 | -0.92%
35 | CCOc1ccc2nc(N3CCCC(C(=O)Nc4ccc(OC)cc4)C3)sc2c1 (configuration not stated) | -2.24%
36 | COc1ccc(CCNC(=O)c2c(O)nc3ccccn3c2=O)cc1OC | 24.3%
37 | O=C(CSc1nc2ccsc2c(=O)n1-c1ccc(Cl)cc1)NCc1ccc(Cl)cc1 | 4.81%
38 | CC1CCN(c2nc(-c3ccc(C(C)(C)C)cc3)nc3ccccc23)CC1 | 14.1%
39 | CCC(=O)N1CCc2cc(S(=O)(=O)NCCC(=O)Nc3ccc(CC)cc3)ccc21 | -2.8%
40 | CC(C)CNC(=O)Nc1cc(C(=O)NCc2ccc(C(C)C)cc2)ccc1N1CCCC1 | 17.9%
41 | CCOc1ccc(NC(=O)c2cc3cc(C)ccc3n2C)cc1 | -11.5%
42 | Clc1ccc(SCCOCCN2CCc3ccccc3C2)cc1 | active: 49.8%
43 | O=C(Nc1ccccc1-c1nc2ccccc2s1)c1ccc(F)cc1 | -6.98%
44 | Clc1ccc(-c2cc3ncc4c(n3n2)-c2ccccc2OC4)cc1 | -1.52%
45 | Cc1ccc(CN2CCCn3nc(C(=O)NCc4ccc(N(C)C)cc4)cc3C2=O)cc1 | -26.6%
46 | COc1ccc(CCNc2nc3c(-c4cccc(C(F)(F)F)c4)nnn3c3ccccc23)cc1OC | -1.79%
47 | Cc1ccc(C(=O)c2cn(Cc3ccccc3F)c3cc4c(cc3c2=O)OCCO4)cc1 | -17.1%
48 | CN(C)CCNC(=O)c1ccc(Cn2c(SCc3ccc(F)cc3)nc3cccnc32)cc1 | 8.79%
49 | CCC(=O)Oc1cc(C(C)(C)C)cc2cc(-c3nc(-c4ccc(OC)cc4OC)no3)c(=O)oc12 | 19.6%
50 | CCOc1ccc(N(CC(=O)Nc2cc(OC)cc(OC)c2)S(=O)(=O)c2c(C)[nH]c(=O)[nH]c2=O)cc1 | 15.5%

Row | SMILES | inhibition
51 | N#C/C(=C\c1c(N2CCOCC2)nc2ccccn2c1=O)C(=O)NC1CCS(=O)(=O)C1 (configuration not stated) | active: 38.1%
52 | O=C(c1cccs1)c1cn(CCOc2ccc(Cl)cc2)c2ccccc12 | -9.58%
53 | COc1ccc(Cl)cc1NC(=O)Cn1c(=O)oc2cc(S(=O)(=O)N3CCCCCC3)ccc21 | 9.45%
54 | CC1=C(C(N)=O)C(c2cccc(O)c2)n2ncnc2N1 (configuration not stated) | -2.35%
55 | Cc1ccc2sc(N(Cc3cccnc3)C(=O)Cc3ccccc3)nc2c1C | -17.7%
56 | Cc1cccc(N2CCN(C(=O)CN3C(=O)COc4ccc(S(=O)(=O)N5CCC(C)CC5)cc43)CC2)c1C | -8.05%
57 | O=S(=O)(Nc1cccc(C(F)(F)F)c1)c1ccc(NS(=O)(=O)c2ccc3c(c2)OCCO3)cc1 | 18.5%
58 | COc1ccc(C(=O)Nc2cccc(-c3cn4ccsc4n3)c2)c(OC)c1 | 3.38%
59 | COC(=O)c1ccccc1-c1c2ccc(=N)cc-2oc2cc(N)ccc12 | active: 76.9%
60 | Cc1ccc(NC(=O)CSc2nc3ccccc3n2CC(=O)N2CCC(C)CC2)cc1C | 1.32%
61 | Cc1csc2nc(COC(=O)c3cccc(NC(=O)c4cccc(Cl)c4)c3)cc(=O)n12 | -9.75%
62 | CCCN(c1ccc(C(C)C)cc1)S(=O)(=O)c1ccc2c(c1)n(C)c(=O)c(=O)n2C | -11.7%
63 | CCc1nn(CC(=O)N2CCC(C)CC2)c(=O)c2cc3occc3n12 | 13.5%
64 | Cc1nc2ccn(Cc3cccs3)c(=O)c2cc1C(=O)NCc1ccc(Br)cc1 | 9.63%
65 | COc1ccc(OC)c(NC(=O)CSC2=Nc3ccccc3C3=NC(CCC(=O)NCc4ccccc4)C(=O)N23)c1 (configuration not stated) | -12.9%
66 | O=C(COc1ccc(Cl)cc1)N(Cc1ccco1)Cc1ccco1 | 11.2%
67 | Cc1c(C(=O)N(C)C)sc2c1c(=O)n(-c1ccc(Cl)c(Cl)c1)c(=O)n2CC(=O)C(C)(C)C | 6.9%
68 | COc1ccc(S(=O)(=O)NC2CCCC2)cc1Br | active: 30.9%
69 | COc1ccccc1CNC(=O)CCC(=O)N1CC(C)Sc2ccccc21 (configuration not stated) | 14.8% and active: 31.7%
70 | COC(=O)c1ccc(NC(=O)CN2CCCN(Cc3ccc(Cl)cc3)S2(=O)=O)cc1 | -8.83%
71 | CCOCCCn1c(SCC(=O)Nc2cc(C)ccc2C)nc2c(oc3ccccc32)c1=O | 5.79%
72 | Cc1ccc(-c2nc3cc(NC(=O)c4cc5ccccc5o4)ccc3o2)cc1Cl | -23.6%
73 | CCN1CCc2c(sc(NC(=O)c3ccc(S(=O)(=O)N(CCOC)CCOC)cc3)c2C(N)=O)C1 | 15.2%
74 | CN(C)CCNC(=O)c1ccc(-n2c(-c3ccccc3)cc3c2CCCCC3)cc1 | 2.13%
75 | CC(C)Oc1ccc(CN2CCc3nc(Nc4ccc5c(c4)OCCO5)ncc3C2)cc1 | -14.9%

Row | SMILES | inhibition
76 | Cc1ccc(Sc2c(C(=O)NCc3cccc(F)c3)[nH]c3ccccc23)cc1 | -14.1%
77 | CC(NC(=O)CN1C(=O)COc2ccc(S(=O)(=O)N3CCCCCC3)cc21)c1ccccc1 (configuration not stated) | 26.8%
78 | O=C(c1sccc1Cl)N1CCN(Cc2ccc3c(c2)OCO3)CC1 | active: 66.6%
79 | COc1ccc(CCNC(=O)Cn2nnc(-c3ccc(Cl)cc3)n2)cc1OC | -0.873%
80 | Cc1ccc(CN(Cc2ccco2)C(=O)c2ccc(Cl)cc2Cl)cc1 | -15.6%
81 | O=C(CSc1ccc(-c2cccs2)nn1)Nc1ccccc1 | -0.361%
82 | Cc1cccc(NC(=O)CSc2ncc(-c3ccc(Br)cc3)[nH]2)c1 | -15.3%
83 | COC(=O)COc1ccc2oc(=O)cc(-c3cc4cccc(OC)c4o3)c2c1 | active: 46%
84 | Cc1cccc(-c2nc(CCNC(=O)COc3ccccc3)cs2)c1 | -2.77%
85 | CC(=O)c1cccc(NC(=O)Nc2c(C)n(C)n(-c3ccccc3)c2=O)c1 | -12.1%
86 | CO/N=C(/CS(=O)(=O)Cc1ccccc1Cl)c1ccc(Cl)cc1Cl | active: 43.1%
87 | COc1cccc(CNc2nc3ccccc3c3nc(-c4cccc(C)c4)nn23)c1 | 7.29%
88 | COc1ccc(-c2cc(-c3ccccc3)nc(SCC(=O)Nc3ccccc3C)c2C#N)cc1 | -3.06%
89 | Cc1cccc(C)c1NC(=O)N1C2CCCC1CC(NC(=O)C(C)(C)C)C2 (configuration not stated) | active: 37.5%
90 | Cn1c(C(=O)NCCN2CCc3ccccc3C2)cc2c(=O)n(C)c3ccccc3c21 | active: 48%
91 | Cc1ccc(C)c(NC(=O)CSc2nc(-c3ccccc3)c(C#N)c(=O)[nH]2)c1 | 4.14%
92 | COc1ccc(S(=O)(=O)c2c(Nc3c(C)cccc3C)sc(C(=O)c3ccc(F)cc3)c2N)cc1 | -18.3%
93 | COC(=O)c1ccccc1NC(=O)C1=CC(c2ccc3c(c2)OCO3)=NS(=O)(=O)N1C | 6.06%
94 | Cc1ccc(CNc2nc3ccc(Cl)cc3n3cnnc23)cc1 | 7.47%
95 | CCc1cccc(C)c1Nc1c(-c2ccc(SC)cc2)nc2sccn12 | 8.22%
96 | Cc1cccc(NC(=O)Cn2c(=O)n(Cc3ccccc3)c(=O)c3sc4ccccc4c32)c1 | 25.6%
97 | Fc1ccc(-c2noc3ncnc(Nc4ccc(F)cc4F)c23)cc1 | 8.81%
